# The whole screen tested about 350,000 compounds, of which about 9,900 (2.8%) were called active. The inconclusive results got no clear call from the source; some entries with a clear call stand among them for comparison. Calls follow the shape of the dose curve; as a rule, active = well fitted activation curve with a large enough effect; inconclusive = small, poorly fitted or top-dose-only effect; inactive = no such curve, though single readings can be large or run the other way. No potency is given beside an inconclusive call; the fits are too rough.
# Experiment: A quantitative high throughput screen for small molecules that induce DNA re-replication in MCF 10a normal breast cells. Also: nearly all actives have a fitted effect of over 50% in size. As to activity, positive = re-replication: % of control where 0% means no effect.
# Conditions: MCF 10A DNA re-replication, Hoechst nuclear intensity, 48 h; activity, positive = re-replication: at 46.1 µM (top of the series)
# Potency is read from the fitted curve at half-maximal effect; tags tell the direction and shape of the fitted curve.
Structure (SMILES),Potency,"activity, positive = re-replication"
CCOc1cc(Br)c(/C=C2/C(=O)N(C)C(=S)N2CC(=O)OC)cc1OC,"inconclusive [activator, single point]",–
O=C(Cc1ccc(Cl)cc1)Nc1ccc2oc(-c3ccncc3)nc2c1,"inconclusive [activator, single point]",–
Cc1ccc(S(=O)(=O)/N=C(\N)Nc2nc(C)c3cc(C)c(C)cc3n2)cc1,–,inactive: -2.37%
CC1CN(C(=O)COC(=O)c2cccc(S(=O)(=O)N3CCc4ccccc43)c2)CC(C)O1 (stereo not given),"inconclusive [activator, partial curve, poor fit]",–
CCCCC(=O)OC1CCC2C3CCc4cc(O)ccc4C3CC[C@]12C (stereo not given in full),active: 18.8 µM,–
COc1ccc(S(=O)(=O)n2nc(OC(=O)c3cccs3)cc2NC(=O)c2cccs2)cc1,"inconclusive [activator, single point]",–
O=[N+]([O-])c1ccc(N2CCN(CC(O)COc3ccccc3)CC2)cc1 (stereo not given),"inconclusive [activator, single point]",–
c1ccc(COn2c(-c3ccccc3)nc3c2CCc2nonc2-3)cc1,"inconclusive [activator, full curve]",–
CCOCc1c(C(=O)Nc2ccc3nc(N4CCOCC4)sc3c2)oc2ccccc12,"inconclusive [activator, single point]",–
COc1cccc(NC(=O)CN(C)C(=O)c2cc(S(=O)(=O)N3CCCCC3)ccc2Cl)c1,–,inactive: 0.399%
N/C(=N\OC(=O)c1cc([N+](=O)[O-])ccc1Cl)c1ccccn1,"inconclusive [activator, single point]",–
COC(=O)COc1ccc(S(=O)(=O)N2CCc3ccccc3C2)cc1,"inconclusive [activator, single point]",–
CCc1nc2ccc(C(=O)N3CCN(c4cccc(C(F)(F)F)c4)CC3)cc2nc1CC,"inconclusive [activator, single point]",–
Cc1ccc(NC(=O)CCc2ccccc2)cc1S(=O)(=O)N1CCOCC1,–,inactive: 9.03%
O=C(Nc1ccc2c(c1)OCO2)c1ccc(NC2CC2)c([N+](=O)[O-])c1,"inconclusive [activator, single point]",–
O=C(CCl)Nc1c2c(nn1-c1ccccc1)CSC2,"inconclusive [activator, single point]",–
CCOC(=O)C(=O)N1CCC(C(=O)OCC)CC1,"inconclusive [activator, partial curve]",–
CCCCOc1ccccc1C1CC(=O)NC2=C1C(=O)CCC2 (stereo not given),active: 4.11 µM,–
Cc1cccc(NC(=O)CSc2nc3ccccc3nc2N2CCCCC2)c1,"inconclusive [activator, single point]",–
Cc1cc(NC(=O)CN2C(=O)/C(=C/c3ccccc3F)SC2=S)no1,"inconclusive [activator, single point]",–
O=C(Oc1c(CN2CCOCC2)cc(Cl)c2cccnc12)c1ccc(F)cc1,active: 3.26 µM,–
CCOc1cc(C(=O)N(Cc2ccccc2)c2ccc(C)cc2)ccc1OCC(=O)N1CCOCC1,–,inactive: 2.29%

Structure (SMILES),Potency,"activity, positive = re-replication"
CCC(C)NCCOCCOc1cc(C)c(Cl)c(C)c1 (stereo not given),"inconclusive [activator, partial curve]",–
COc1ccccc1CNC(=O)CSc1nn2c(=O)c(C(C)(C)C)nnc2s1,–,inactive: 9.38%
COc1ccc(Cc2c(O)nc(SCC(=O)N3CCOCC3)[nH]c2=O)cc1,"inconclusive [activator, full curve, poor fit]",–
O=C(C1CCN(S(=O)(=O)Cc2ccccc2)CC1)N1CCCc2ccccc21,"inconclusive [activator, full curve, poor fit]",–
COCCCNCCCCOc1ccc(OCc2ccccc2)cc1,"inconclusive [activator, partial curve, poor fit]",–
C=CCC[C@H](Cc1ccc(F)cc1)C(=O)OC[C@@H](NC(=O)[C@@H](CC=C)CC(=O)N(CCO)Cc1ccccc1)C(C)(C)C,"inconclusive [activator, single point]",–
COC(=O)c1ccc(C(=O)OC)c(NC(=S)N2CCN(c3ccccc3F)CC2)c1,–,inactive: 0.17%
FC(F)(F)c1cc(-c2ccco2)nc(N2CCN(Cc3ccccc3)CC2)n1,active: 12.6 µM,–
O=C(CCN1C(=O)c2ccccc2C1=O)NC(=S)Nc1ccccc1,"inconclusive [activator, single point]",–
COc1ccc(-c2cc3ccc(O)cc3oc2=O)cc1OC,"inconclusive [activator, single point]",–
Cc1ccc(O)c(C(=O)c2cnc3c(c2)CN(C)C(=O)N3)c1,"inconclusive [activator, single point]",–
COc1ccc(CN2CCCC(CO)(Cc3ccc(F)cc3)C2)c(OC)c1OC (stereo not given),"inconclusive [activator, single point]",–
CC(=O)Nc1ccc(C(=O)NC2CCSc3ccccc32)cc1 (stereo not given),–,inactive: 4.9%
C/C(=N\Nc1nc(Cl)c(Cl)cc1Cl)c1ccc(S(=O)(=O)NCc2ccco2)cc1,"inconclusive [activator, partial curve]",–
CCc1cc(C(=O)c2ccc(C)cc2)c(NC(=O)CCl)s1,"inconclusive [activator, single point]",–
CC(=NCc1cccc(Cl)c1)c1nc(-c2ccco2)oc1O,"inconclusive [activator, single point]",–
O=C(CCc1c[nH]c2ccccc12)N1CCN(S(=O)(=O)c2ccccc2)CC1,–,inactive: 9.85%
N#Cc1ccc(CSc2nnc(NC(=O)C3CC(=O)N(c4ccc5c(c4)OCCO5)C3)s2)cc1 (stereo not given),"inconclusive [activator, single point]",–
Cc1nn(-c2nc3ccccc3[nH]2)c(N)c1-c1ccc(Cl)cc1,"inconclusive [activator, partial curve]",–
Cn1c(=O)c2c([nH]c(=S)n2Cc2ccc(Cl)cc2)n(C)c1=O,–,inactive: -11.4%
COC(=O)N1C(=O)[C@](c2ccc(Cl)cc2)(C(C)C)N1C(=O)OC,"inconclusive [activator, full curve, poor fit]",–
Cc1ccc(Cn2cnc3sc4c(c3c2=O)CCC4)c(C)c1,"inconclusive [activator, partial curve, poor fit]",–

Structure (SMILES),Potency,"activity, positive = re-replication"
Cn1nnnc1SCCNCc1cc(Cl)ccc1OCc1ccccc1,"inconclusive [activator, full curve, poor fit]",–
O=C(CSCc1ccc(Br)cc1)N=Nc1c(O)[nH]c2ccccc12,"inconclusive [activator, partial curve]",–
CCOC(=O)c1c(C(C)(C)C)oc2ccc(OCC#N)cc12,"inconclusive [activator, partial curve, poor fit]",–
O=C1CN(C(=O)CSc2nnc(Nc3ccccc3)s2)c2ccccc2N1,"inconclusive [activator, partial curve, poor fit]",–
CCC1(c2ccc(F)cc2)NC(=O)N(CC(=O)Nc2ccc(S(N)(=O)=O)cc2)C1=O (stereo not given),–,inactive: 6.04%
COC(=O)[C@@]1(Cc2ccc(OC)cc2)[C@H]2c3cc(C(=O)N4CCCC4)n(Cc4ccc(C)o4)c3C[C@H]2CN1C(=O)c1ccccc1,"inconclusive [activator, single point]",–
O=c1[nH]c2cc3c(cc2cc1C(c1nnnn1Cc1ccccc1)N1CCN2CCCC2C1)OCCO3 (stereo not given),–,inactive: -4.31%
Cc1n[nH]c(C)c1CCNC(=O)C1CCC(=O)N(CCc2cccc(F)c2)C1 (stereo not given),–,inactive: 5.26%
Cn1cc(C(=O)c2ccc(Cl)cc2Cl)cc1C(=O)N/N=C(\N)COc1ccccc1,"inconclusive [activator, partial curve, poor fit]",–
Cc1ccc(C(=O)c2cc([N+](=O)[O-])ccc2N2CCCCC2)cc1C,"inconclusive [activator, partial curve, poor fit]",–
Cc1cc([N+](=O)[O-])nn1CC(=O)NNC(=S)Nc1ccc(Cl)cc1,–,inactive: -11.2%
Cc1cccc(NC(=O)c2ccc([N+](=O)[O-])o2)n1,"inconclusive [activator, partial curve, poor fit]",–
COc1ccc(C(=O)C2CC2c2ccc3c(c2)OCO3)cc1 (stereo not given),"inconclusive [activator, partial curve, poor fit]",–
CC1CCCN(CCCNC(=O)C2CCN(S(=O)(=O)N3CCC4(CC3)OCCO4)CC2)C1 (stereo not given),"inconclusive [activator, partial curve, poor fit]",–
COc1ccc(C(=O)NCC(c2cccs2)N2CCOCC2)cc1OC (stereo not given),"inconclusive [activator, partial curve, poor fit]",–
O=C(Nc1ccc(N2CCOCC2)c(Cl)c1)c1ccc2c(c1)OCCO2,"inconclusive [activator, partial curve, poor fit]",–
CCOC(=O)c1c(NC(=O)C2C3CCC(O3)C2C(=O)O)sc(C)c1-c1ccc(F)cc1 (stereo not given),–,inactive: 4.77%
S=c1[nH]c(-c2ccccc2)cn1-c1ccccc1,–,inactive: -5.2%
COc1ccc(NC(=O)CC(C)NCCCN2CCCC2=O)cc1 (stereo not given),–,inactive: 0.362%
CCOc1ccc(NC(=O)C/C(C)=N/NC(=O)COc2ccc(Br)cc2C)cc1,"inconclusive [activator, single point]",–
COc1ccc2nc(/N=C(\N)NC(=O)N3c4ccccc4Sc4ccccc43)nc(C)c2c1,"inconclusive [activator, single point]",–

# Source: PubChem BioAssay AID624296 (National Center for Advancing Translational Sciences (NCATS), 2012)
